# Results taken from PubChem BioAssay (Tox21).
# Several values for one entry are separate records, joined by “and”; a condition that tells them apart may be missing. Equal entries are not always repeated. This list was built around the results that the source calls inconclusive (neither active nor inactive); the mix of calls is not that of the screen. For part of these data: Potencies of inconclusive entries are doubtful fits and often do not repeat. Activity calls are given as the source filed them. Unless noted, calls come from the whole dose curve; as a rule, active = well fitted curve in the direction sought with a large enough effect in the repeat runs; inconclusive = weak or mixed curves; inactive = no such curve, though single readings can be large; an effect the other way counts as inactive or inconclusive.
# Key:
# [1] = biological target: Luciferin 4-monooxygenase (Photinus pyralis) (UniProt P08659); assay: qHTS assay to identify small molecule inhibitors of firefly luciferase (AID 1224835); note: nearly all actives have a fitted effect of over 25% in size; note: potency is the fitted concentration of half-maximal effect; for activity change, negative = inhibition: % is set by controls: 0 for no effect and ±100 for the full control effect
# Chain of UniProt P08659 (P08659 whole entry, looked up): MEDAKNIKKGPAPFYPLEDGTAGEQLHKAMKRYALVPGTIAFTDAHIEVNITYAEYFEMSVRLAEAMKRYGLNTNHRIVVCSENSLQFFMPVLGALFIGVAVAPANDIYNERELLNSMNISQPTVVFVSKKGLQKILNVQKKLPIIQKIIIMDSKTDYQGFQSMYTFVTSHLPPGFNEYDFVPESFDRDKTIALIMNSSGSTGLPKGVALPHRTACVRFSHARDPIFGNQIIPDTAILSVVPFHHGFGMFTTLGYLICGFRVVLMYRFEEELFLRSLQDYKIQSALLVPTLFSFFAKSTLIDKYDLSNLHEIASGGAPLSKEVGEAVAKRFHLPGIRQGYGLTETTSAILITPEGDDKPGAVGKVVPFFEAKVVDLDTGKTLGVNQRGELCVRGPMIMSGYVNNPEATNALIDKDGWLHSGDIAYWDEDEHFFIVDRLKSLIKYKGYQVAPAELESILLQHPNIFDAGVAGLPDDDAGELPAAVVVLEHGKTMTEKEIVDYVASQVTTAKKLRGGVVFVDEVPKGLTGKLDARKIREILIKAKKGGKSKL
# In short: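 Inhibition of purified Photinus luciferase is measured by luminescence. Substrate levels (D-luciferin, ATP) sit at their KM values. Each compound is tested in a concentration series.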
# [2] = qHTS assay to identify small molecule antagonists of the constitutive androstane receptor (CAR) signaling pathway - cell viability counter screen (AID 1224837); note: potency is the fitted concentration of half-maximal effect; nearly all actives have a fitted effect of over 45% in size
# In short: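 To flag cytotoxic false antagonists, HepG2 hCAR/CYP2B6-2.2kb cells were treated 23 hr with 15-concentration compound series and 50 nM CITCO at 37 C/5% CO2; CellTiter-Fluor fluorescence was the measured end point.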
# [3] = qHTS assay to identify small molecule antagonists of the estrogen related receptor signaling pathway with the pleiotropic PPARgamma coactivator (PGC) from Tox21 10K library - cell viability counter screen (AID 1224840; active = well fitted cell-killing curve with a large enough effect in the repeat runs, not every such curve was filed as active; inconclusive = weak or mixed curves, or effect the other way; inactive = no such curve, though single readings can be large or run the other way; note: nearly all actives have a fitted effect of over 40% in size; note: potency is the fitted concentration of half-maximal effect; for viability change, negative = cytotoxic: % is set by controls: 0 for no effect and ±100 for the full control effect)
# In short: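 Seeded PGC/ERR cells (2,000/well, 6 h, 37 C/5% CO2) get compound by pin tool; 17.5 h incubation at 37 C; CellTiter-Fluor added, 30 min, fluorescence measured.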
# [4] = qHTS assay to identify small molecule agonists of H2AX (AID 1224845; active = well fitted activation curve with a large enough effect in the signal ratio in the repeat runs, not every such curve was filed as active; inconclusive = weak or mixed curves; the % refers to the signal ratio; note: potency is the fitted concentration of half-maximal effect); conditions: CHO-K1 phospho-H2AX Ser139 HTRF, 3 h; activation (H2AX phosphorylation): at 154 µM (top of the series) unless noted
# In short: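 Phospho-H2AX Ser139 measured by HTRF (ex 320 nm; em 665 and 620 nm) after 24 hr antibody incubation. Compounds, 15 concentrations, 0.76% DMSO, were applied to CHO-K1 cells for 3hr at 37C before lysis.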
# [5] = qHTS assay to identify small molecule antagonists of the estrogen related receptor (ERR) signaling pathway from Tox21 library - cell viability counter screen (AID 1224834); note: nearly all actives have a fitted effect of over 30% in size; note: potency is the fitted concentration of half-maximal effect; for viability change, negative = cytotoxic: % is set by controls: 0 for no effect and ±100 for the full control effect
# In short: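 Seeded ERR cells were rested 6 h at 37 C/5% CO2 before compounds, positive and negative controls or DMSO were added. Incubation continued for 17.5 h, and viability was then quantified by CellTiter-Fluor fluorescence.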
# [6] = qHTS RealTime-Glo MT Cell Viability Assay in HEK293 cells - 32 hour (AID 1224868); note: nearly all actives have a fitted effect of over 50% in size; note: potency is the fitted concentration of half-maximal effect
# In short: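 Cells + reagent dispensed (600 cells/well, HEK293) → 5 h at 37 C/5% CO2 → 23 nL compound in DMSO pinned → 40 h at 37 C → luminescence read at 0, 8, 16, 24, 32, 40 h.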
# [7] = A CellTox Green Cytotoxicity Assay to monitor cytotoxicity in HEK293 cells - 0 hour (AID 1224869); note: potency is the fitted concentration of half-maximal effect; nearly all actives have a fitted effect of over 50% in size
# In short: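 Tox21 screen in HEK293: membrane-impermeant cyanine dye fluoresces on binding dead-cell DNA; compound pinned 5 h post-seeding, plates held at 37 C, signal read repeatedly through 40 h.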
# [8] = qHTS assay to identify small molecule agonists of the constitutive androstane receptor (CAR) signaling pathway - cell viability counter screen (AID 1224836); note: nearly all actives have a fitted effect of over 45% in size; note: potency is the fitted concentration of half-maximal effect
# In short: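 Fluorescence from CellTiter-Fluor indicates live cells after 23 h exposure. The human hepatoma line expresses hCAR and a CYP2B6-2.2kb reporter. Incubation medium contains 0.75 uM PK11195 (final).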
# [9] = qHTS assay to identify small molecule agonists of H2AX - cell viability counter screen (AID 1224847; calls by dose curve; note: nearly all actives have a fitted effect of over 30% in size; note: potency is the fitted concentration of half-maximal effect)
# In short: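 Viability of CHO-K1 (wild type) cells after 3 hr compound exposure was measured by CellTiter-Glo luminescence.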
# [10] = qHTS RealTime-Glo MT Cell Viability Assay in HepG2 cells - 24 hour (AID 1224867); note: nearly all actives have a fitted effect of over 50% in size; note: potency is the fitted concentration of half-maximal effect
# In short: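 Real-time, nonlytic viability: 600 HepG2 cells/well mixed with NanoLuc enzyme plus prosubstrate; 5 h settle, compound (DMSO) added by pintool; luminescence monitored over 40 h at 37 C.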
# [11] = biological target: Nuclear receptor subfamily 1 group I member 3 (Homo sapiens) (UniProt Q14994); assay: qHTS assay to identify small molecule agonists of the constitutive androstane receptor (CAR) signaling pathway (AID 1224839); note: potency is the fitted concentration of half-maximal effect; nearly all actives have a fitted effect of over 15% in size
# Chain of UniProt Q14994 (Q14994 whole entry, looked up): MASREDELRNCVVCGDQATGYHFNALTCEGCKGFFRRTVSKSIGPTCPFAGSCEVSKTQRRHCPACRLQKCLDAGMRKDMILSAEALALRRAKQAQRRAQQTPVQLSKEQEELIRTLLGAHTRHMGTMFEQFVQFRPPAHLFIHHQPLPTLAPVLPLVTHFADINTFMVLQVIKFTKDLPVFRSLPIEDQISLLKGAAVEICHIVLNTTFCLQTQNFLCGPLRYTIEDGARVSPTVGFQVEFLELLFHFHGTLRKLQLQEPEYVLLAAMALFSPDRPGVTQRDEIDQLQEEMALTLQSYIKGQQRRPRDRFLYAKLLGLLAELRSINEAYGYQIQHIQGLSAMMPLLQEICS
# In short: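 Stable hCAR/CYP2B6-2.2kb HepG2 line in DMEM with 10% FBS; compounds (15 concentrations) and 0.75 uM PK11195 final, 24 h at 37 C/5% CO2, then ONE-Glo luminescence after 30 min.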
# [12] = qHTS assay to identify small molecule agonists of the hypoxia (HIF-1) signaling pathway - cell viability counter screen (AID 1224844; calls by dose curve; note: % is set by controls: 0 for no effect and ±100 for the full control effect; nearly all actives have a fitted effect of over 50% in size)
# In short: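 HRE-bla ME-180; 0.5% dFBS; cpd 17 h, 37C, 5% CO2; CellTiter-Glo lum., 30 min RT, post-FRET read, same wells.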
# [13] = qHTS assay to identify small molecule agonists of the hypoxia (HIF-1) signaling pathway (AID 1224846; active = well fitted activation curve with a large enough effect in the signal ratio in the repeat runs, not every such curve was filed as active; inconclusive = weak or mixed curves; the % refers to the signal ratio; note: % is set by controls: 0 for no effect and ±100 for the full control effect); conditions: HRE-bla ME-180 cells, beta-lactamase ratio, 17 h; activation: at 76.8 µM (top of the series) unless noted
# In short: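 Reporter induction in HRE-bla ME-180 cells is taken as agonism: cells sit 5 hrs after plating, receive compounds or DMSO only, incubate 17 hrs at 37C under 5% CO2, and are loaded with CCF4-AM for beta-lactamase FRET measurement.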
# [14] = qHTS assay to identify small molecule antagonists of the estrogen related receptor signaling pathway with the pleiotropic PPARgamma coactivator (PGC) from Tox21 10K library (AID 1224841; call rule not given here)
# In short: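 Test chemicals dissolved in DMSO were applied to pre-incubated (6 h) PGC/ERR cells at 2,000 cells/well for an 18 h, 37 C treatment; reporter luminescence was then read using One-Glo.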
# Tags give direction and shape of the fitted curve or compound fluorescence and quenching.
smiles,measurement,setting,value
CC1=NN(c2cc(S(=O)(=O)O)ccc2Cl)C(=O)C1N=Nc1ccccc1 (stereo not drawn),Potency,[1],"inconclusive: 63.3 µM [inhibitor, partial curve]"
same,Potency,[2],"inconclusive: 54.5 µM [cytotoxic, partial curve]"
same,Potency,[3],"inconclusive: 54.5 µM [cytotoxic, partial curve]"
same,Potency,[4],"inconclusive: 113 µM [falling, partial curve, poor fit]"
CC(C)(Oc1ccc(C2CC2(Cl)Cl)cc1)C(=O)O (stereo not drawn),Potency,[5],inactive
same,Potency,[6],"inconclusive: 21.9 µM [cytotoxic, partial curve]"
same,Potency,[7],"inconclusive: 59.2 µM [activator, partial curve, poor fit]"
Cc1ccc(-c2ccccc2C#N)cc1,Potency,[1],"inconclusive: 30.9 µM [inhibitor, partial curve]"
CC(C)(Sc1cc(C(C)(C)C)c(O)c(C(C)(C)C)c1)Sc1cc(C(C)(C)C)c(O)c(C(C)(C)C)c1,Potency,[1],inactive
NC(=S)Nc1cccc2ccccc12,"activity change, negative = inhibition",[1],inactive: 2.89% [at 10.5 µM]
CO[C@@]1(NC(=O)CSCC#N)C(=O)N2C(C(=O)O)=C(CSc3nnnn3C)CS[C@@H]21,Potency,[1],inactive
NC(=O)Cn1c(=O)cc(CCN2CCN(c3nccc4sccc34)CC2)c2ccc(F)cc21,Potency,[1],active: 44.8 µM
same,Potency,[8],"inconclusive: 30.6 µM [cytotoxic, partial curve]"
same,Potency,[2],"inconclusive: 54.5 µM [cytotoxic, partial curve]"
same,Potency,[3],"inconclusive: 34.4 µM [cytotoxic, partial curve]"
same,Potency,[9],"inconclusive: 113 µM [cytotoxic, single point]"
same,Potency,[10],"inconclusive: 21.9 µM [falling, partial curve]"
COc1ccc2nc(NC(=O)Nc3ccccc3)sc2c1,Potency,[5],"inconclusive: 16.8 µM [cytotoxic, partial curve]"
same,Potency,[6],active: 5.35 µM
Cc1ccc(S(=O)(=O)NCl)cc1,Potency,[1],"inconclusive: 68.3 µM [inhibitor] and inconclusive: 75.1 µM [inhibitor, partial curve]"
c1ccc(-c2ccc(-c3ccccc3)cc2)cc1,Potency,[1],active: 0.82 µM
same,Potency,[11],active: 3.53 µM
same,"viability change, negative = cytotoxic",[3],inactive: 3.19% [at 19 µM]
same,"activity change, negative = cytotoxicity",[12],inactive: 1.63% [at 15.8 µM]
same,activation,[13],inactive: -1.07% [at 15.8 µM]
CC(=O)C=O,Potency,[5],inactive
same,Potency,[6],inactive
CC(C)(c1ccc(Oc2ccc3c(c2)C(=O)OC3=O)cc1)c1ccc(Oc2ccc3c(c2)C(=O)OC3=O)cc1,Potency,[1],"inconclusive: 88.8 µM [inhibitor, single point]"
same,Potency,[8],inactive
same,Potency,[14],inactive
same,Potency,[13],inactive
same,Potency,[9],inactive
same,Potency,[10],inactive
